Reference: the supplement of paper PMC3334620
Whole data set: some 33,000 sequences, median “E-score (-0.5 to 0.5)” near -0.053, cut for the highest 2% near 0.37. The list shows a part of the results.

molecular target: Hap1 (UniProt P0CE41); assay: PBM E-score (8-mer binding enrichment) (E-score (-0.5 to 0.5)); higher = stronger / more preferred TF binding; most listed sequences are background and not binding sites; details: protein concentration: 200 nM; construct: GST-DNA-binding domain
How it was run: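 GST-tagged yeast TFs (full-length or DNA-binding domain) were made by PURExpress in vitro transcription/translation and applied at about 100-200 nM to universal all-10-mer Agilent arrays. The arrays were made double-stranded by primer extension, on fresh or once-stripped slides. Bound protein was detected with fluorescent anti-GST, and scans were normalised with masliner. Each ungapped eight-base word, pooled with its reverse complement, received an E-score (modified Wilcoxon-Mann-Whitney statistic) from the Universal PBM Analysis Suite.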

UniProt P0CE41, sequence (P0CE41 whole entry, the tested form may be a part): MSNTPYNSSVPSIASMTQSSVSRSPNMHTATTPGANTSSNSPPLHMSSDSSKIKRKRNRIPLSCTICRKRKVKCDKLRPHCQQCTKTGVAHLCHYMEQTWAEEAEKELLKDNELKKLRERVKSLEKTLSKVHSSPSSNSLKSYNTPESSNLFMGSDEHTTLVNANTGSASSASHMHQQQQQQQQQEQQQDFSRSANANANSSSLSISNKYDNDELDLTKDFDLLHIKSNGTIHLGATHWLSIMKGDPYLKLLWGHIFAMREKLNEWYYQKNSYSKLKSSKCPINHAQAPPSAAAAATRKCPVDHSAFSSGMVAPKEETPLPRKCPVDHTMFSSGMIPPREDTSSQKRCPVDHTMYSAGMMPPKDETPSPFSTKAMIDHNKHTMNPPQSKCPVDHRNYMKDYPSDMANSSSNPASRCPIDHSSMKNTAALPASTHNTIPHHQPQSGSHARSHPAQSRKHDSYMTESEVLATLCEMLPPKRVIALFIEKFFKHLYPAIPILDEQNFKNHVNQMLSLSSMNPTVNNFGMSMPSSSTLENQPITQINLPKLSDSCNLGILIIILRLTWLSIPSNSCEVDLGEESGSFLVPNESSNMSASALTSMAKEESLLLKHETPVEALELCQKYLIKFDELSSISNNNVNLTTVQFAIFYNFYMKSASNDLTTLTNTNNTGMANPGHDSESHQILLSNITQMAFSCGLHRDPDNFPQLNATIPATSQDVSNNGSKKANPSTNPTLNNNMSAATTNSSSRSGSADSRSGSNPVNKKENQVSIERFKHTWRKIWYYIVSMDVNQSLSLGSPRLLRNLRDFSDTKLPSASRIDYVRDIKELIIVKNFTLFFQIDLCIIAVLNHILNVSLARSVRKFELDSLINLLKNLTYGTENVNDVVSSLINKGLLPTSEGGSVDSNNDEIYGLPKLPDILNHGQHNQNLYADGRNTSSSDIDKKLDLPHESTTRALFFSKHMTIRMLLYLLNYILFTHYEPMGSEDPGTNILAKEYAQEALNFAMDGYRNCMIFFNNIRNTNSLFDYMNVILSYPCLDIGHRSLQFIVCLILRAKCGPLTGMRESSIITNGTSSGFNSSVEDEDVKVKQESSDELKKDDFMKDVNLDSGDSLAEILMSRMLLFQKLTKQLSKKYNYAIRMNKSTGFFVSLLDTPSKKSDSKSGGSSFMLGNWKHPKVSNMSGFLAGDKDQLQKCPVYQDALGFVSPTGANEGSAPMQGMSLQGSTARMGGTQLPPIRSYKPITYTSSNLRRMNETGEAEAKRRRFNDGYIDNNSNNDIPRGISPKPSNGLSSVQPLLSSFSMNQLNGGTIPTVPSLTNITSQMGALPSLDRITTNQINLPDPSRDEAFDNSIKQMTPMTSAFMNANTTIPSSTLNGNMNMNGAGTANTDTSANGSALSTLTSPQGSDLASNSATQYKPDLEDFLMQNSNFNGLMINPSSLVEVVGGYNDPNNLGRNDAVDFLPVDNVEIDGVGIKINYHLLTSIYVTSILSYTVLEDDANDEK

Sequence | PBM E-score
AATGGGCC | 0.0191
CCCTGATC | 0.0522
CTGTCATA | -0.37
ACCGGTCG | 0.289
CGAGAAGC | 0.0864
CCCATCAC | -0.12
CCTGCTAC | -0.115
ACTCCGCA | 0.156
ACAGAACA | -0.0684
TTATCCAA | -0.0467
GACGGAAC | 0.174
AGCAGTGG | -0.183
AGGTCTGA | -0.197
CTGCGACC | -0.148
AACGCCGA | 0.447
AGCGGAAC | 0.243
CTAGCTTA | -0.11
GGACAATA | 0.225
ATAGCGGA | 0.363
AGAAAAAT | -0.0988
ACTCGAGG | -0.0247
CCTTGCCG | 0.159
GACAGCGC | 0.0086
AATGATCC | 0.0779
AGAACAAG | -0.155

Sequence | PBM E-score
AAGTAGCT | -0.28
GTTGTATA | -0.112
AAGAGGCA | -0.125
CCAAGCAA | -0.255
CACGTGCC | -0.165
CTGTTTCC | 0.117
AGTTAGAG | -0.104
GTTAGTGA | -0.144
AGAATTGA | -0.0941
ACGTGTGC | -0.301
AAAGTCGG | 0.113
GCCATAGC | -0.00164
CCTGTAAC | -0.125
AAATCATC | -0.0641
AGACTCTG | -0.283
AAAAATGT | 0.0967
CCCAACAC | -0.169
ACTATAAT | -0.0751
CACTATGA | -0.212
AGGAAATC | 0.117
ACGTTGCG | 0.0201
CCACAAAA | -0.0826
CAGATTCA | -0.164
ACCCTTCC | 0.0954
GATTCTGC | 0.0958

Sequence | PBM E-score
GTGGTAAA | -0.0214
GCGATCGA | -0.0223
ATCAAACG | -0.0377
ACTTCGGC | 0.377
ATTGAAAA | -0.0505
ATCCCGAT | 0.272
GCTAATTA | 0.144
ATTACTGC | 0.0541
GTAGAGAA | -0.0974
AGCTCCCA | -0.128
ACCGTGCA | -0.0832
AACATCTA | -0.141
AAAAACTC | 0.0741
CCAGAATA | 0.0162
CCAACTAA | -0.0246
CACGGTCC | 0.031
CCACTTCA | -0.156
CGGAAGAC | 0.231
CTTTAGCA | -0.0662
GCCTTAAA | 0.165
ACATGTGG | -0.167
AAGTTGGA | -0.104
CGTTAGGA | 0.204
CGGTTTAA | 0.168
CACTATTA | -0.0035

Sequence | PBM E-score
CATCAGAC | -0.00431
ACGCCCAT | 0.0558
ACCCATGG | -0.00358
CGATATTA | 0.289
CCATGAGG | -0.0509
GCAGAAAA | 0.0368
CTTTCATC | -0.119
TCATACGA | -0.121
CGCGGCCC | 0.169
GAGCTGAC | 0.0197
AAACAACG | 0.0643
AGGCCTTG | -0.18
GAGGTCGA | -0.21
GTGGATAA | -0.0821
AGAAGCCT | -0.18
CGGTAGAG | 0.23
CGGCCCGC | 0.227
AGGCTGGC | -0.264
AGTCCATG | -0.117
ACCTGAAC | -0.134
GCTGATCC | 0.196
AAAATATC | -0.0515
AGAATAAC | -0.0616
CGGTACAA | 0.218
AAGATGGG | -0.126

Sequence | PBM E-score
CGTTCTAA | 0.0112
GCCGTCGA | 0.0668
TCACCCAA | -0.0125
CAACCACC | 0.0746
GGCTCCCA | -0.0936
ATTGCCGC | 0.0752
ATGGAGGG | -0.427
ATAGATCG | 0.0518
CACGCAGC | 0.0107
AATACTTG | -0.112
AGTACGTC | -0.0969
CAAGTTAG | -0.0771
CTCTAAAA | -0.0794
GCAGCTAC | -0.0107
AAGATTTA | 0.0176
AGGTCAGC | -0.205
CGCCTAAA | -0.0728
TATATCAA | -0.0594
CCCATGCG | -0.18
AGTGACCC | -0.102
ATTGATCA | -0.206
AATATCGC | 0.314
CCCAAACA | -0.202
CGCGATTA | 0.0933
GAGTTTCA | -0.0937

Sequence | PBM E-score
CCACGCGC | -0.0992
GCGTGTAC | 0.0377
CCGTTGTA | 0.239
GATTTCGC | 0.204
CGCCAACC | 0.16
GCATCTCC | 0.124
GGTAGAAA | 0.0318
ACACTCTC | 0.0326
AGCGAAAC | 0.113
CCGCCACA | -0.054
CTTTTTCC | 0.0285
AGATATAT | 0.151
AACAACCT | -0.184
AGGGTATC | -0.0283
AACACGTC | -0.0992
CCTTACAA | -0.109
AGTAGTAG | -0.151
AATATACT | -0.133
ACTTGCCC | 0.0774
GGGACCAA | -0.113
GCTCAGCC | -0.175
CAAACTAA | 0.0274
AAGGATTC | -0.117
CGATCCCG | 0.241
TATGGTGA | -0.147

Sequence | PBM E-score
GAGGGGCC | -0.0548
CTCCGCCA | 0.12
ATAAGCTC | 0.146
ACACGCTG | -0.205
CGAAACCC | 0.33
CATAGTTA | -0.0706
ACTTCGCT | 0.0445
AGCGTGGC | -0.109
CTGTCGGC | 0.331
CCAGCTGC | -0.0271
GATTTGAC | -0.144
AATCTATG | -0.102
GAGGACAA | -0.115
ATAGCCCA | -0.0975
CCCCGCGA | 0.185
CCCTGACA | -0.181
CGGAGGTC | 0.261
TACAACGA | -0.0607
CAATTTGA | -0.0393
GCGCGCAA | 0.205
CTACTATA | 0.126
ACAAGGAA | 0.0242
ACAATCCC | 0.254
AAGTTGGT | -0.00953
CAAGTGTA | -0.286

Sequence | PBM E-score
CTATGTGC | -0.115
CGGGCGAC | 0.304
AGTCGTGA | -0.295
CCGGTCTC | 0.251
AGCATGCG | -0.0823
ACTAGAGA | -0.12
AGTACTCA | -0.265
GTACCGGA | 0.393
GGGGGTTA | -0.181
CGCCGTCC | 0.0969
CCGGGATA | 0.301
GGCGACCC | 0.208
GACCATAC | 0.0169
CGTATTGC | 0.153
ACGTTGGC | -0.134
CTTGGACC | -0.0592
GGGGTTAC | 0.218
CGGGAATA | 0.458
AGCAGAAC | -0.0496
ACCTTCCC | -0.0752
CTAGCACC | 0.0163
AAACGCAG | -0.119
AGCACTTG | -0.185
GACTGGTA | -0.0324
AAGTTCAG | -0.227

Sequence | PBM E-score
CGCTGACC | 0.0396
AGTTAAGA | -0.0129
CCATCCAC | -0.15
TCATATCA | -0.128
AACTGATC | -0.0539
ATTATCAA | -0.167
CCGCAACG | 0.216
ATAGGGTG | -0.24
GTTGGATA | -0.083
AGTCATCC | -0.0318
CATAAGGA | -0.151
CAGCCCGG | 0.308
GCGCGTAC | 0.196
CTCCGACA | 0.291
ACTCTTGG | -0.22
AGGCTCTA | -0.199
CCCATCGG | 0.307
TCAAGAGA | -0.177
ATCGCTCC | 0.214
ACTGGCGA | -0.17
ACGACATC | -0.0465
CACTACCC | -0.075
CTGCCGAA | 0.103
AATGGAAG | 0.00758
ACACCGAG | 0.336

Sequence | PBM E-score
CCTGGAAG | -0.173
CAGGATCG | -0.0662
AAAGAGAG | -0.166
CCCGGAAA | 0.411
ACTAGCGC | -0.112
ACTAATCA | -0.0211
CAATTTCG | 0.0837
CAAGAGGG | -0.274
AACGTATG | -0.275
ACCACCCG | 0.199
CGGGAGAA | 0.129
AGGAGTTA | 0.292
TACGGGAA | 0.231
ACCTAGTC | -0.141
AGGGCTAT | -0.272
TCACATCA | -0.0474
CCTCATGA | -0.0804
GACCACCC | -0.0841
TACACGAA | 0.00747
ATCCGTTG | 0.301
ATGGATGA | -0.114
AAGCCTTG | -0.255
ACGTAAGT | -0.0986
CCTATCCA | -0.26
ATACGATA | -0.00088

Sequence | PBM E-score
GCCTGGCC | 0.0376
CCGGAGCC | 0.341
ACCTTGAA | -0.303
GACTATGC | -0.194
ACTATGAC | -0.16
ATTTGTCG | 0.235
AAATTACG | -0.0441
ACGAACTG | -0.105
AGGGATGC | -0.223
CTACACGA | -0.229
AAACATCC | 0.122
ATGGCAAA | -0.126
AACATGAG | -0.215
CGCATGAA | -0.0382
AGAAGAAC | -0.0641
AATGTATC | 0.0324
CACACACA | -0.308
AGGCACAT | -0.141
GCGTCGAA | 0.0566
CCTGCGAA | -0.197
CAGCAGAA | -0.118
CCCATCCC | -0.0251
CTAACTAG | -0.0143
AAAACCGA | 0.396
AGCAGGGA | -0.251

Sequence | PBM E-score
ATTAATCA | -0.00067
TCATGACA | -0.0426
GAACGACC | -0.311
CCTGAAGA | -0.137
TCCCGTCA | 0.0354
CTCCACAG | -0.346
AATGTCTG | -0.0594
AATCGAGG | -0.13
CGCGATGA | 0.088
CAAGTGAG | -0.238
AATAGAGT | -0.234
CAATGTAA | -0.0714
TAAAACGA | -0.224
ACAACCAG | -0.141
ATGTACCC | -0.00709
TGCTTCAA | -0.0729
ACATTCCA | -0.132
ATCCCAGA | -0.155
CCACAGAG | -0.138
CCAAAACA | -0.251
TCTATGAA | -0.115
ACCTGCCA | -0.122
GGCTGCAA | 0.188
AGTCACAT | -0.148
TGTGGTAA | 0.0211

Sequence | PBM E-score
CTCACAAC | -0.0979
ATCCTCGA | -0.107
TAATCGGA | 0.317
CGTTAAGA | 0.0629
CGCGAGAG | 0.0872
ACGGAAAA | 0.317
AACCGGAC | 0.369
ATGGTCAC | -0.0307
AGGCAGTG | -0.249
ACCTCTCG | -0.0768
ATGTAGCG | -0.0634
ATAGAGGA | -0.186
AGGCCGCC | -0.0366
ACCGGCCA | 0.284
GAGATCCC | 0.0892
AATGGATC | 0.0386
GAGATAAA | 0.237
ACCTCAGA | -0.117
AGTAACAT | 0.0104
ATGGACGC | 0.00214
AGACGTAG | -0.262
GATCCTCA | -0.0626
AGGGCACA | -0.191
AGCATGAT | -0.103
GGGATCCC | 0.228

Sequence | PBM E-score
CAGTCTCA | -0.149
ATGCCAGC | -0.185
AGCTGACC | -0.0559
CGCGAACG | 0.143
GAATAGGC | 0.0487
CGGCCTCC | 0.131
AAACGATC | -0.22
AAGGCCGA | 0.435
ACCTACGC | 0.00363
TGCCTGAA | -0.327
AATCTCCG | 0.476
AGGAATAG | -0.0693
CTCGGCCC | 0.336
ACTCACAG | -0.254
CTCCGATC | 0.311
GAGGCATA | 0.00364
CATTTCAA | -0.117
GCTGGAAA | 0.0989
GGGATGAA | 0.0152
